Experimental data reported in patent US10988516B2, “Methods and compositions for treating inflammation” (UTI Limited Partnership, priority 2012, dated 2021).

Key:
naive 8.3-CD8+ T-cells = conditions: in the presence of LPS
8.3-CD8+ T-cells = conditions: cultured in the presence of peptide for 28 days
Experimental: A and B, Phenotype of 8.3-CD8+ T-cells 28 days after culture in the presence of peptide-pulsed (10 or 0.001 ug/ml) DCs. […] C, Intracellular IFNγ content in response to peptide challenge. […] D, Secretion of IFNγ by, and proliferation of memory-like 8.3-CD8+ T-cells (induced by BacIYL) in response to peptide challenge.
Because low-avidity autoreactive T-cells tend to differentiate into memory-like anergic (non-proliferating, but cytokine-secreting) autoregulatory (autoimmune disease-suppressing) T-cells in response to chronic autoantigenic stimulation, it was contemplated that Bac-IYL might be able to induce memory-like 8.3-CD8+ T-cells in vitro.

## IYLKTNVYL (listed as Bacteroides sp.) [BacIYL]
Naive 8.3-CD8+ T-cells
  IFNγ and proliferative responses of naive 8.3-CD8+ T-cells: efficient IFNγ and proliferative responses
8.3-CD8+ T-cells
  phenotype of 8.3-CD8+ T-cells (CD44, CD62L, CD69, CD122): expressed the late T-cell activation marker CD44 and low levels of the naive T-cell marker CD62L
